Measured values published in PubChem BioAssay AID488969 (Vanderbilt High Throughput Screening Facility, 2010).
Over roughly 110,000 compounds, “z-score” has its median near -0.1; the highest 2% begin near 2. The list shows a part of the results. Activity calls are given as the source filed them.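 Rule for the calls: active = z-score in the third read window above 3 or below -3; inactive = the rest.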

target: Metabotropic glutamate receptor 8 (Rattus norvegicus) (UniProt P70579); test: mGluR8 Gi/Go-coupled signaling modulation – cell-based, rat, thallium flux, HTS, primary screen (AID 488969); settings: HEK293 rat mGluR8, GIRK (G protein-gated inwardly rectifying potassium channel) thallium flux, FluoZin2; at 10 µM; stronger effect = higher value; submaximal glutamate (EC20) added with thallium
Sequence of UniProt P70579 (P70579 whole entry, looked up): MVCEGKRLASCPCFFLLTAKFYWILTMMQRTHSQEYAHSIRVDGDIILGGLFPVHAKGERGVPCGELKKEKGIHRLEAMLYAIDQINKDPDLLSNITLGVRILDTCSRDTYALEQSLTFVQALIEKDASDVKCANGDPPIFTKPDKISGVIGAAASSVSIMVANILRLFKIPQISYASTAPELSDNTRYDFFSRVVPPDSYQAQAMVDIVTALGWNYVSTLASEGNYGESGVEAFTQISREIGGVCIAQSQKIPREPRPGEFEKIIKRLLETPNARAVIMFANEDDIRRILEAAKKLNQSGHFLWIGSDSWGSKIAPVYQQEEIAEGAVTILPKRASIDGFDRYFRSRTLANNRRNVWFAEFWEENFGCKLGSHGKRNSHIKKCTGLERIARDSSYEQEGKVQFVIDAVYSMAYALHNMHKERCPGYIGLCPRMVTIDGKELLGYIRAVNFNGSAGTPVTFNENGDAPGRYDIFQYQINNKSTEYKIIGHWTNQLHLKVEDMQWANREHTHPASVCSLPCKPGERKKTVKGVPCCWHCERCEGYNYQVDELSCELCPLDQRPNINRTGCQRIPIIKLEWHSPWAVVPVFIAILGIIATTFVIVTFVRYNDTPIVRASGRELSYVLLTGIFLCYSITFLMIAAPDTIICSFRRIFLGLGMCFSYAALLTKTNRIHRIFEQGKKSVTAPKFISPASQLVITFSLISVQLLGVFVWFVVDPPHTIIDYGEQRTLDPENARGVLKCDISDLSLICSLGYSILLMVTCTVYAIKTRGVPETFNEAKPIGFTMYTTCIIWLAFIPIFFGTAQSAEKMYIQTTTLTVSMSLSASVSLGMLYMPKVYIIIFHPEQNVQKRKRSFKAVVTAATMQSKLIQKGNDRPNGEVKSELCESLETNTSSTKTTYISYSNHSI

Row | SMILES | z-score
1 | CC(=O)c1cccc(NC(=S)NC(=O)c2cccc(C)c2)c1 | active: 7.49
2 | O=C(c1ccco1)N1CCN(C(=O)c2ccc(COc3ccc(Cl)cc3Cl)o2)CC1 | -0.771
3 | COc1ccc(OC)c(CCNC(=O)C2CCN(c3nnc(-n4cccc4)s3)CC2)c1 | -0.473
4 | COc1ccc(-c2nnnn2CCc2ccccc2)cc1 | -0.471
5 | COc1ccc(CNC(=O)CN(Cc2ccccc2)C(=O)c2csnn2)cc1 | -0.179
6 | CCOc1ccc(NC(=O)Cn2cc(C(=O)c3ccco3)c3ccccc32)cc1 | 0.434
7 | COc1ccccc1CNC(=O)CCCNS(=O)(=O)c1cccc2nsnc12 | -0.134
8 | CCOC(=O)C1=CN(C)C=C(C(=O)OCC)C1c1ccsc1 | -0.144
9 | CC(C(=O)N1CCOCC1)(c1ccccc1)c1ccccc1 | -0.156
10 | CSc1nc2c(c(=O)n1Cc1ccccc1)SC(C)C2 (centres undefined) | -0.479
11 | CCCCOc1ccc(N(CC(=O)NCC2CCCO2)C(=O)CCC(=O)Nc2cc(C)ccn2)cc1 (centres undefined) | -0.384
12 | COc1ccc(NC(=O)CSc2nc(NS(=O)(=O)c3ccccc3)cc(=O)[nH]2)cc1 | -0.0529
13 | Cc1nnc(NC2=NCCCCC2)o1 | 0.0841
14 | CCOC(=O)CNC(=O)c1cc(-c2ccc3c(c2)OCCO3)oc1C | 0.113
15 | O=C(c1cc(-c2cccnc2)nc2ccc(Br)cc12)N1CCC2(CC1)OCCO2 | 0.0607
16 | Cc1oc(C(C)(C)C)cc1C(=O)N1CCCC1C(=O)O (centres undefined) | 0.0366
17 | Cc1ccccc1N=C/C=C1/C=C(c2ccccc2)OC(C)(C)O1 | 0.216
18 | Cc1ccc(C(=O)Nc2cccnc2)cc1S(=O)(=O)N1CCOCC1 | 0.265
19 | COc1ccccc1Nc1nc(N)nc(CSc2nncn2C)n1 | -0.062
20 | O=C(NC(=S)NC1CCCCCCCCCCC1)c1cccnc1 | -0.0629
21 | C=C(C)c1cccc(C(C)(C)NC(=O)Nn2cnnc2)c1 | 0.275
22 | CCN(CC)S(=O)(=O)c1ccc(-c2nnc(SCC(=O)Nc3cc(OC)cc(OC)c3)o2)cc1 | 0.363

Row | SMILES | z-score
23 | Cc1cccc(CN2C(=O)N/C(=C/c3ccc(C)s3)C2=O)c1 | -0.147
24 | Cc1onc(-c2ccccc2)c1C(=O)Nc1nnc(N(C)Cc2ccccc2)s1 | -0.841
25 | CCC(C)NC(=O)CCc1c(C)nc2nc(-c3cc(OC)cc(OC)c3)nn2c1C (centres undefined) | -0.148
26 | COc1ccc(NS(=O)(=O)c2cc(NC(=O)/C=C/c3cc(OC)ccc3OC)ccc2N2CCCCC2)cc1 | 0.234
27 | Cc1ccccc1OCc1nnc(SCC(=O)Nc2ccc3c(c2)OCO3)n1C | 0.679
28 | C#CCn1c(=NC(=O)c2cc(Cl)sc2Cl)sc2cc(S(N)(=O)=O)ccc21 | -0.0707
29 | Cc1ccc(C)c(CSc2nnc(-c3cccnc3)n2N)c1 | -0.395
30 | O=C(CNc1ccccc1)N/N=C/c1ccc([N+](=O)[O-])o1 | -0.389
31 | COc1ccc(-c2[nH]nc3c2C(c2ccncc2)C(C#N)=C(N)O3)cc1 (centres undefined) | 0.984
32 | CCOc1cc(-c2nc(-c3ccc(C)nc3OCC)no2)cc(OCC)c1OCC | -0.655
33 | Cc1sc(NC(=O)C(C)C)c(C(=O)Nc2ccccc2)c1C | 0.0376
34 | COc1ccc(/C=N/OCC(=O)NCc2cccs2)c(OC)c1 | 0.168
35 | CCCCNC(=O)C1=C(N)C(C(=O)Nc2ccc(C)c(S(=O)(=O)N3CCCCC3)c2)SC1=Nc1ccc(C)cc1C (centres undefined) | 0.356
36 | CN1CCN(CC(=O)Nc2ccc(OCc3ccccc3)cc2)CC1 | 0.0182
37 | Cc1nn(CCCC(=O)N2CCc3ccccc3C2)c(=O)c2cc3sccc3n12 | -0.368
38 | COc1ccc(C2=NN(C(=O)CSc3ncccn3)C(c3ccc(C)cc3)C2)cc1 (centres undefined) | -0.339
39 | Cc1cccc(NC2SC(=O)N(c3ccccc3)C2=O)c1 (centres undefined) | 0.175
40 | CC(=O)NCC(=O)N(Cc1ccco1)C1(C(=O)NC2CCCCC2)CCCCC1 | -0.599
41 | O=C(NCCc1cn2ccsc2n1)C1CCCCC1 | -0.227
42 | O=C1NC2(CCCCCC2)C(=O)N1Cc1ccc([N+](=O)[O-])cc1 | -0.301
43 | COCCNC(=O)CS(=O)Cc1nc(-c2ccccc2C)oc1C (centres undefined) | -0.599
44 | CCc1c(C)nc2cc(-c3ccc(OC)c(OC)c3)nn2c1NCC1CC1 | -0.434

Row | SMILES | z-score
45 | CCOC(=O)c1ccc(CNC(=O)C(Cc2c[nH]c3ccccc23)NC(C)=O)o1 (centres undefined) | 0.631
46 | O=C(CSc1nc(C2CC2)nc2ccccc12)N1CCc2ccccc2C1 | -0.769
47 | O=C(N1CCCC1)C12CCC3CC(CC(C3)C1)C2 | -0.0329
48 | CC(NC(=O)Cc1cccs1)C(c1cccs1)N1CCOCC1 (centres undefined) | -0.108
49 | COc1ccc2[nH]c(=O)c(CN(Cc3cccs3)Cc3nnnn3C(C)(C)C)cc2c1 | -0.312
50 | CCC(C)(C)n1nnnc1C(c1ccccc1)N1CCc2ccccc2C1 (centres undefined) | -0.432
51 | Cn1c(=O)c2cc(S(=O)(=O)NC(C(=O)NC3CCCCC3)c3ccccc3)ccc2n(C)c1=O (centres undefined) | -0.26
52 | FC(F)(F)c1cc(C(F)(F)F)n2nc(-c3sccc3-n3cccc3)cc2n1 | -0.214
53 | COc1cccc(/C=N/n2c(N)c(S(=O)(=O)c3cccs3)c3nc4ccccc4nc32)c1 | -0.0122
54 | Cc1csc(NC(=O)c2ccccc2C(=O)O)n1 | 0.151
55 | COC(=O)c1ccc(NC(=O)Cn2nnc3ccccc32)cc1 | 0.448
56 | O=C(Nc1ccccc1Oc1ccccc1)c1cnccn1 | -0.466
57 | Cc1ccc(-c2ccc(NC(=O)C3C4C=CC(C4)C3C(=O)O)cc2)o1 (centres undefined) | -0.0584
58 | COc1ccc(S(=O)(=O)N2CCCC(C(=O)NCc3ccco3)C2)cc1Cl (centres undefined) | -0.122
59 | Cc1cccc(OCC(=O)Nc2nonc2NC(=O)COc2cccc(C)c2)c1 | -0.126
60 | CCCN(Cc1cc2cc(OC)ccc2[nH]c1=O)C(=O)c1ccncc1 | -0.075
61 | N#CCSc1ccsc1C(=O)Nc1ccc(F)cc1 | 0.00201
62 | Cc1cc(C)c(C)c(S(=O)(=O)NCC(=O)O)c1C | -0.225
63 | C=CCNC(=O)C1CC(=O)N(c2ccc(OCC(=O)Nc3ccc(Cl)c(C(F)(F)F)c3)cc2)C1 (centres undefined) | -0.135
64 | O=C(CSc1nc(Cc2ccccc2)nc2ccccc12)Nc1ccc2c(c1)OCCO2 | -1.02
65 | COC(=O)CSC1=C(C#N)C(c2ccccc2OC)C(C(=O)OC)C(=O)N1 (centres undefined) | -0.677
66 | CCOC(=O)c1sc(NC(=O)CSc2nnc(C(C)C)n2CC)nc1C | 0.179

Row | SMILES | z-score
67 | CCC(NC(=O)/C(=C\c1ccc2c(c1)OCO2)NC(C)=O)C(=O)O (centres undefined) | -0.0342
68 | Cc1ccc2nc(-c3ccccc3)cn2c1 | -0.4
69 | N/C(=N\OC(=O)Cc1ccccc1)c1ccc(Br)cc1 | 2.92
70 | O=C(Nc1ccc(F)cc1)c1sc(Cl)nc1-c1ccccc1 | -0.403
71 | CCOc1cccc2c1OC(c1cc(OC)c(OC)c(OC)c1)N1N=C(c3ccc(C)o3)CC21 (centres undefined) | 0.0246
72 | O=C1OC(Nc2ccc(Cl)cn2)c2ccccc21 (centres undefined) | -0.156
73 | CS(=O)(=O)N(CC(=O)N1CCOCC1)Cc1ccccc1 | -0.000556
74 | COc1cc(Nc2nnc(C)s2)c(Cl)cc1Cl | -0.0758
75 | N#CCN1CCN(CC(=O)Nc2cccc3ccccc23)CC1 | 1.31
76 | Cc1cccc2c1N(CCOc1ccc(C(C)(C)C)cc1)C(=O)C2=O | 0.0456
77 | CC1(C)CC(=O)C2=C(C1)OC(N)=C(C#N)C2Cc1ccccc1 (centres undefined) | -0.029
78 | CCCCOC(=O)c1ccc(NC(=O)c2nn(C)cc2Br)cc1 | -0.112
79 | Cc1[nH]c2ccccc2c1C(c1ccccn1)c1c(C)[nH]c2ccccc12 | 0.169
80 | Cn1c(C(=O)OCC(=O)NCC2CCCO2)cc2sccc21 (centres undefined) | 0.622
81 | COc1ccc(OC)c(-n2c(C)ccc2-c2ccc(S(C)(=O)=O)cc2)c1 | -0.248
82 | O=C(Nc1c2c(nc3c1CCC3)CCCC2)c1ccccn1 | -0.432
83 | CCCn1c(SCC(=O)N2N=C3/C(=C/c4ccc(OC)cc4)CCCC3C2c2ccc(OC)cc2)n[nH]c1=O (centres undefined) | -0.0176
84 | CC1CCN(CC(=O)Nc2cccc([N+](=O)[O-])c2)CC1 | -0.103
85 | C/C(=C/c1oc2ccc(O)cc2c1[N+](=O)[O-])N(C)C | -0.663
86 | CCC(=O)N1CCc2cc(S(=O)(=O)NCCCN3CCN(Cc4ccccc4)CC3)ccc21 | -0.193
87 | COCCNC(=O)c1c(NC(=O)c2nc(SC)ncc2Cl)sc2c1CCCC2 | -1.69
88 | Nc1ccc2c(c1)C(=O)N(CC1CCCO1)C2=O (centres undefined) | -0.0617

Row | SMILES | z-score
89 | COc1ccc(S(=O)(=O)N2CCn3c2nc2ccccc23)cc1 | 0.0748
90 | CCc1ccc(N=CC2=C(O)CC(c3ccco3)CC2=O)cc1 (centres undefined) | -0.0735
91 | COc1ccc(/C=C2/C(=O)ON=C2c2ccccc2)cc1OC | -0.13
92 | Cn1c(SCC(=O)c2c(N)n(C)c(=O)n(C)c2=O)nnc1-c1ccc(F)cc1 | -0.319
93 | COc1cc2c(cc1NC(=O)COC(=O)/C=C/c1ccccc1)oc1ccccc12 | -0.0343
94 | Cc1ccccc1N(C(=O)Cc1c[nH]c2ccccc12)C(C(=O)NC1CCCCC1)c1ccco1 (centres undefined) | -0.148
95 | CCCC(=O)Nc1cc(-c2nnc(OC)c3ccccc23)ccc1N1CCOCC1 | -0.445
96 | Cc1cc2cc(CNC(=O)Nc3ccccc3)ccc2n1C | -0.263
97 | CCOC(=O)C1=C(CSc2nncn2C)NC(=O)NC1c1cc(OCC)ccc1OCC (centres undefined) | 0.113
98 | O=C(COC(=O)C1CC1)Nc1ccccc1Sc1ccccc1 | -0.43
99 | O=C(Nc1ccc2oc(-c3ccccc3F)nc2c1)c1cncc(Br)c1 | -0.141
100 | CCNC(=O)c1c(NC(=O)C2COc3ccccc3O2)sc2c1CCCC2 (centres undefined) | 0.0967
101 | CCOc1cc(CNc2ccc(O)cc2)ccc1OCc1ccc(Cl)cc1Cl | -0.163
102 | O=C(CC1NC2CCCCC2NC1=O)Nc1ccc2c(c1)OCO2 (centres undefined) | -0.312
103 | CCc1ccc(-c2csc3[n+]2CCN3C(C)=O)cc1 | 0.228
104 | C=CCN(C)CC/C=C1\c2ccccc2CSc2ccccc21 | 1.99
105 | COc1ccc(Nc2ncc(C(=O)O)c3ccccc23)cc1 | 0.188
106 | COC(=O)c1sc(OC)cc1OCc1ccc(C)cc1 | -0.492
107 | CC(=O)c1ccc(OCC(O)CN2CCOCC2)cc1 (centres undefined) | -0.233
108 | COCCNc1nnc(SCC(=O)Nc2cc(-c3ccccc3)nn2-c2ccccc2)s1 | 0.027
109 | CCOC(=O)C(Sc1nnc(-c2ccncc2)o1)C(C)=O (centres undefined) | -0.221
